Measured values published in the supplement of paper PMC8728848.
The other results are listed elsewhere or left out.

Experiments:
Test in all cases: glycan array binding signal (z-score within array); higher = stronger binding
Conditions in all cases: glycan notation: IUPAC condensed, linker removed
[1] = molecular target: Neu5Ac(a2-6)Gal(b1-4)GlcNAc(b1-3)[Neu5Ac(a2-6)Gal(b1-4)GlcNAc(b1-6)]GalNAc
How it was run: (§1)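 Glycan array binding is given as a within-array Z-score, which can be read as non-binding when negative. The arrays, 3228 of them, came from the Consortium for Functional Glycomics database and were retained only where the protein sequence was available. Z-scores were averaged across arrays of the same protein sequence at different concentrations or buffers and across linkers.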

[2] = molecular target: Neu5Ac(a2-6)Gal(b1-4)GlcNAc(b1-6)GalNAc
How it was run: as §1

[3] = molecular target: Neu5Ac(a2-6)Gal(b1-4)GlcNAc(b1-6)[Gal(b1-3)GlcNAc(b1-3)]Gal(b1-4)Glc
How it was run: as §1

[4] = molecular target: Neu5Ac(a2-6)Gal(b1-4)GlcNAc(b1-6)[Gal(b1-3)]GalNAc
How it was run: as §1

[5] = molecular target: Neu5Ac(a2-6)Gal(b1-4)GlcNAc6S
How it was run: as §1

Neu5Ac(a2-6)GalNAc = molecular target: Neu5Ac(a2-6)GalNAc
How it was run: as §1

[6] = molecular target: Neu5Ac(a2-6)GalNAc(b1-4)GlcNAc
How it was run: as §1

[7] = molecular target: Neu5Ac(a2-6)GalNAc(b1-4)GlcNAc6S
How it was run: as §1

[8] = molecular target: Neu5Ac(a2-6)GlcNAc(b1-4)GlcNAc
How it was run: as §1

[9] = molecular target: Neu5Ac(a2-6)GlcNAc(b1-4)GlcNAc(b1-4)GlcNAc
How it was run: as §1

Neu5Ac(a2-8)Neu5Ac = molecular target: Neu5Ac(a2-8)Neu5Ac
How it was run: as §1

[10] = molecular target: Neu5Ac(a2-8)Neu5Ac(a2-3)Gal(b1-3)GalNAc(b1-4)[Neu5Ac(a2-3)]Gal(b1-4)Glc
How it was run: as §1

[11] = molecular target: Neu5Ac(a2-8)Neu5Ac(a2-3)Gal(b1-3)GalNAc(b1-4)[Neu5Ac(a2-8)Neu5Ac(a2-3)]Gal(b1-4)Glc
How it was run: as §1

[12] = molecular target: Neu5Ac(a2-8)Neu5Ac(a2-3)Gal(b1-4)Glc
How it was run: as §1

[13] = molecular target: Neu5Ac(a2-8)Neu5Ac(a2-3)Gal(b1-4)GlcNAc
How it was run: as §1

[14] = molecular target: Neu5Ac(a2-8)Neu5Ac(a2-3)[Gal(b1-3)GalNAc(b1-4)]Gal(b1-4)Glc
How it was run: as §1

[15] = molecular target: Neu5Ac(a2-8)Neu5Ac(a2-3)[GalNAc(b1-4)]Gal(b1-4)Glc
How it was run: as §1

[16] = molecular target: Neu5Ac(a2-8)Neu5Ac(a2-8)Neu5Ac
How it was run: as §1

[17] = molecular target: Neu5Ac(a2-8)Neu5Ac(a2-8)Neu5Ac(a2-3)Gal(b1-4)Glc
How it was run: as §1

[18] = molecular target: Neu5Ac(a2-8)Neu5Ac(a2-8)Neu5Ac(a2-3)[Gal(b1-3)GalNAc(b1-4)]Gal(b1-4)Glc
How it was run: as §1

[19] = molecular target: Neu5Ac(a2-8)Neu5Ac(a2-8)Neu5Ac(a2-3)[GalNAc(b1-4)]Gal(b1-4)Glc
How it was run: as §1

[20] = molecular target: Neu5Ac(a2-8)Neu5Ac(a2-8)Neu5Ac(a2-8)Neu5Ac(a2-3)[GalNAc(b1-4)]Gal(b1-4)Glc
How it was run: as §1

[21] = molecular target: Neu5Ac(a2-8)Neu5Gc(a2-3)Gal(b1-4)GlcNAc
How it was run: as §1

Neu5Ac(b1-6)GalNAc = molecular target: Neu5Ac(b1-6)GalNAc
How it was run: as §1

[22] = molecular target: Neu5Ac(b2-6)Gal(b1-4)GlcNAc
How it was run: as §1

Neu5Ac(b2-6)GalNAc = molecular target: Neu5Ac(b2-6)GalNAc
How it was run: as §1

[23] = molecular target: Neu5Ac9Ac(a2-3)Gal(b1-3)GlcNAc
How it was run: as §1

[24] = molecular target: Neu5Ac9Ac(a2-3)Gal(b1-4)GlcNAc
How it was run: as §1

[25] = molecular target: Neu5Ac9Ac(a2-6)Gal(b1-4)GlcNAc
How it was run: as §1

[26] = molecular target: Neu5Gc(a2-3)Gal(b1-3)GlcNAc
How it was run: as §1

[27] = molecular target: Neu5Gc(a2-3)Gal(b1-3)[Fuc(a1-4)]GlcNAc
How it was run: as §1

Neu5Gc(a2-3)Gal(b1-4)Glc = molecular target: Neu5Gc(a2-3)Gal(b1-4)Glc
How it was run: as §1

[28] = molecular target: Neu5Gc(a2-3)Gal(b1-4)GlcNAc
How it was run: as §1

[29] = molecular target: Neu5Gc(a2-3)Gal(b1-4)GlcNAc(b1-3)Gal(b1-4)GlcNAc(b1-2)Man(a1-3)[Neu5Gc(a2-3)Gal(b1-4)GlcNAc(b1-3)Gal(b1-4)GlcNAc(b1-2)Man(a1-6)]Man(b1-4)GlcNAc(b1-4)GlcNAc
How it was run: as §1

[30] = molecular target: Neu5Gc(a2-3)Gal(b1-4)[Fuc(a1-3)]GlcNAc
How it was run: as §1

[31] = molecular target: Neu5Gc(a2-6)Gal(b1-4)GlcNAc
How it was run: as §1

Neu5Gc(a2-6)GalNAc = molecular target: Neu5Gc(a2-6)GalNAc
How it was run: as §1

[32] = molecular target: Neu5Gc(a2-8)Neu5Ac(a2-3)Gal(b1-4)GlcNAc
How it was run: as §1

[33] = molecular target: Neu5Gc(a2-8)Neu5Gc(a2-3)Gal(b1-4)GlcNAc
How it was run: as §1

[34] = molecular target: Neu5Gc(a2-8)Neu5Gc(a2-3)Gal(b1-4)GlcNAc(b1-3)Gal(b1-4)GlcNAc
How it was run: as §1

[35] = molecular target: Neu5Gc(a2-8)Neu5Gc(a2-6)Gal(b1-4)GlcNAc
How it was run: as §1

[36] = molecular target: Neu5Gc(b2-6)Gal(b1-4)GlcNAc
How it was run: as §1

B1: WGA (Triticum vulgare) (protein)
chain: QRCGEQGSNMECPNNLCCSQYGYCGMGGDYCGKGCQNGACWTSKRCGSQAGGATCPNNHCCSQYGHCGFGAEYCGAGCQGGPCRADIKCGSQSGGKLCPNNLCCSQWGFCGLGSEFCGGGCQSGACSTDKPCGKDAGGRVCTNNYCCSKWGSCGIGPGYCGAGCQSGGCDAVFAGAITANSTLLAE
glycan array binding signal (z-score) [1]: -0.339
glycan array binding signal (z-score) [2]: -0.307
glycan array binding signal (z-score) [3]: -0.328
glycan array binding signal (z-score) [4]: -0.306
glycan array binding signal (z-score) [5]: -0.359
glycan array binding signal (z-score) (Neu5Ac(a2-6)GalNAc): -0.298
glycan array binding signal (z-score) [6]: 1.7
glycan array binding signal (z-score) [7]: -0.029
glycan array binding signal (z-score) [8]: 2.48
glycan array binding signal (z-score) [9]: 3.14
glycan array binding signal (z-score) (Neu5Ac(a2-8)Neu5Ac): -0.34
glycan array binding signal (z-score) [10]: -0.345
glycan array binding signal (z-score) [11]: -0.39
glycan array binding signal (z-score) [12]: -0.376
glycan array binding signal (z-score) [13]: -0.288
glycan array binding signal (z-score) [14]: -0.31
glycan array binding signal (z-score) [15]: -0.382
glycan array binding signal (z-score) [16]: -0.363
glycan array binding signal (z-score) [17]: -0.35
glycan array binding signal (z-score) [18]: -0.292
glycan array binding signal (z-score) [19]: -0.301
glycan array binding signal (z-score) [20]: -0.352
glycan array binding signal (z-score) [21]: -0.29
glycan array binding signal (z-score) (Neu5Ac(b1-6)GalNAc): 1.43
glycan array binding signal (z-score) [22]: -0.366
glycan array binding signal (z-score) (Neu5Ac(b2-6)GalNAc): -0.008
glycan array binding signal (z-score) [23]: -0.328
glycan array binding signal (z-score) [24]: 0.222
glycan array binding signal (z-score) [25]: -0.389
glycan array binding signal (z-score) [26]: -0.368
glycan array binding signal (z-score) [27]: -0.336
glycan array binding signal (z-score) (Neu5Gc(a2-3)Gal(b1-4)Glc): -0.362
glycan array binding signal (z-score) [28]: -0.261
glycan array binding signal (z-score) [29]: -0.157
glycan array binding signal (z-score) [30]: -0.347
glycan array binding signal (z-score) [31]: -0.36
glycan array binding signal (z-score) (Neu5Gc(a2-6)GalNAc): -0.324
glycan array binding signal (z-score) [32]: -0.339
glycan array binding signal (z-score) [33]: -0.351
glycan array binding signal (z-score) [34]: -0.312
glycan array binding signal (z-score) [35]: -0.335
glycan array binding signal (z-score) [36]: -0.332
